Out of some 130,000 compounds screened, about 1,200 (0.92%) were called active. Inconclusive means that the source gave no clear call. Such entries were picked first, then a sample of the others. Calls come from the whole dose curve; as a rule, active = well fitted cell-killing curve with a large enough effect; inconclusive = small, poorly fitted or top-dose-only effect; inactive = no such curve, though single readings can be large or run the other way. A potency beside an inconclusive call is a rough fit, not a confirmed value.
assay: qHTS Screen for Compounds that Selectively Target Cancer Cells with p53 Mutations: Cytotoxicity of p53ts Cells at the Permissive Temperature; settings: H1299-p53A138V at 32C, ATP luminescence viability, 24 h; activity change, negative = cytotoxicity: at 46.1 µM (top of the series); note: nearly all actives have a fitted effect of over 55% in size;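 for activity change, negative = cytotoxicity: 0% = DMSO and -100% = full killing by reference compound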
Summary of the method: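 Viability by ATPlite luminescence after 24 h compound treatment (up to 46 uM) at the permissive 32C. Cells are H1299 carrying p53 A138V. Scale runs from DMSO basal to 100 uM tamoxifen as full kill; AC50 from Hill fits.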
Potency is the fitted concentration of half-maximal effect; tags give direction and shape of the fitted curve.

| SMILES | Potency | activity change, negative = cytotoxicity |
| --- | --- | --- |
| O=C(Nc1ccc(N2CCOCC2)c(Cl)c1)c1ncn[nH]1 | inconclusive: 20 µM [cytotoxic, single point] |  |
| Clc1ccc(-c2nnc(-c3ccccc3Cl)o2)cc1 | inconclusive: 10 µM [cytotoxic, partial curve] |  |
| CCOc1ccccc1NC(=O)Cn1c(=O)n(Cc2ccco2)c(=O)c2ccc(C(=O)NC3CCCC3)cc21 |  | inactive: -15.2% |
| O=C(N/N=C1/C[C@@H](O)[C@@H](O)[C@@H]2[C@H]3C(=O)N(c4ccc(F)cc4F)C(=O)[C@@H]3CC[C@@H]12)OCc1ccccc1 |  | inactive: -1.7% [at 9.22 µM] |
| CC(C)(C)c1ccc(CN(Cc2ccco2)c2cnc(S(C)(=O)=O)nc2C(=O)Nc2ccc(F)cc2)cc1 |  | inactive: 11.4% |
| Cn1c(=O)cc(SCC(=O)N2CCN(c3ccccc3F)CC2)c2cc(Cl)ccc21 |  | inactive: 8.72% |
| CCN(CC)c1ccc(NC(=O)c2ccco2)cc1 | active: 10 µM |  |
| O=C(Nc1cccc(-c2nnc(-c3ccccc3)o2)c1)c1ccc(Br)o1 | inconclusive: 20 µM [cytotoxic, single point] |  |
| Fc1ccc(-c2cc(C(F)(F)F)nc(N3CCCCC3)n2)cc1 | inconclusive: 0.316 µM [cytotoxic, full curve, poor fit] |  |
| COc1ccc(NC(=O)Nc2ccc(OCC(=O)N3CCOCC3)cc2)cc1OC | inconclusive: 12.6 µM [cytotoxic, partial curve] |  |
| Cc1ccc(-c2cc(C(=O)Oc3ccccc3Cl)no2)cc1C | inconclusive: 12.6 µM [cytotoxic, single point] |  |
| Cc1ccc2nc(Cl)c3cc(C(=O)NC4CCC(C)CC4)sc3c2c1 (stereo not given) |  | inactive: 5.83% |
| Cc1ccc(OCC(=O)Nc2cccc(C(=O)OCc3cc(=O)n4nc(C)sc4n3)c2)cc1 | inconclusive: 12.6 µM [cytotoxic, partial curve] |  |
| CCNC(=O)NC(=O)COC(=O)c1ccccc1SCC(=O)NC(=O)NCC | inconclusive: 10 µM [cytotoxic, partial curve] |  |
| CCOc1ccc(C(=O)Nc2ccc3c(c2)OCCO3)cc1OC |  | inactive: 3.3% |
| COc1ccc(N(CC(=O)N2CCc3ccccc32)S(=O)(=O)c2c(C)n[nH]c2C)cc1 | inconclusive: 31.6 µM [cytotoxic, single point] |  |
| O=C(Nc1cc(Cl)cc(Cl)c1)c1ccc(F)c(S(=O)(=O)NC2CCCCC2)c1 | inconclusive: 14.1 µM [cytotoxic, single point] |  |
| Cc1c(C(=O)Nc2ccc(N3CCOCC3)cc2)oc2ccccc12 | inconclusive: 10 µM [cytotoxic, partial curve] |  |
| Cc1cccc(-n2ccnc2SCC(=O)Nc2nccs2)c1 | inconclusive: 0.251 µM [cytotoxic, full curve, poor fit] |  |
| CCOc1ccc(NC(=O)c2ccccc2OC)cc1 | active: 12.6 µM |  |
| Cc1ccccc1NC(=O)CN(C)S(=O)(=O)c1cccc2cccnc12 |  | inactive: 6.38% |
| CCCOc1ccc(NC(=O)CC2C(=O)N(C)C(=S)N2Cc2cccs2)cc1 (stereo not given) | inconclusive: 2.82 µM [cytotoxic, partial curve, poor fit] |  |
| COC(=O)[C@@]1(Cc2ccc(OC)cc2)[C@H]2c3cc(C(=O)N(C)C)n(Cc4ccc(C)c(F)c4F)c3C[C@H]2CN1C(=O)c1ccccc1 |  | inactive: 47.9% |
| CCOc1ccccc1NC(=O)CCCc1nc2ccccc2c(=O)[nH]1 | inconclusive: 20 µM [cytotoxic, single point] |  |
| Cc1nc2cc(NS(=O)(=O)c3c(C)c(C)cc(C)c3C)ccc2s1 | inconclusive: 14.1 µM [cytotoxic, partial curve, poor fit] |  |

| SMILES | Potency | activity change, negative = cytotoxicity |
| --- | --- | --- |
| Clc1cccc(-c2csc(-c3nc(-c4ccc(Br)s4)cs3)n2)c1 |  | inactive: 0.252% |
| Cc1cccc(N2CCN(C(=O)c3c(C)oc4nc(C)nc(N5CCCC5)c34)CC2C)c1 (stereo not given) |  | inactive: 8.26% |
| Cc1cccc(NCc2nnc3n2CCCCC3)c1C |  | inactive: 5.18% |
| COc1ccccc1N1CCN(c2nc3ccc(C)cc3nc2-n2nc(C)cc2C)CC1 |  | inactive: 2.92% |
| Cc1nn(-c2nc3ccccc3s2)c(N)c1-c1ccccc1 | inconclusive: 10 µM [cytotoxic, partial curve] |  |
| COc1ccc(-c2nnc(NC(=O)c3ccc(S(=O)(=O)N4COCC4(C)C)cc3)o2)cc1 |  | inactive: 8.21% |
| Cc1ccc(NS(=O)(=O)c2ccc3c4c(cccc24)C(=O)N3)c(C)c1 | inconclusive: 31.6 µM [cytotoxic, single point] |  |
| O=C(NCCc1ccccc1F)C1CCCN1S(=O)(=O)c1ccc2ccccc2c1 (stereo not given) |  | inactive: -7.31% |
| CN1CCN(c2ccc(NC(=O)c3ccc4c(c3)OCO4)cc2)CC1 | inconclusive: 12.6 µM [cytotoxic, single point] |  |
| C(=C\c1ccco1)/C=N/n1cnnc1 |  | inactive: 2.59% |
| CCOC(=O)c1c(C)sc(-c2c(-c3ccc4c(c3)OCCO4)[nH]c3c2c(=O)[nH]c(=O)n3C)c1O |  | inactive: 13.3% |
| Cc1nc2ccccn2c1C(=O)Nc1ccc2c(c1)OCCO2 | inconclusive: 35.5 µM [cytotoxic, single point] |  |
| O=C(NCCC1=CCCCC1)c1ccc2c(c1)N(Cc1ccc(F)cc1)C(=O)c1ccccc1S2(=O)=O | inconclusive: 3.98 µM [cytotoxic, single point] |  |
| COc1ccc2nc3sc(C(=O)Nc4cc(Cl)c(OC)cc4OC)cc3cc2c1 | inconclusive: 3.98 µM [cytotoxic, full curve] |  |
| Cc1c(NC(=O)c2cc(-c3cccc(Cl)c3)on2)c(=O)n(-c2ccccc2)n1C |  | inactive: 5.28% |
| COc1ccc(CC(=O)NC2CC(=O)N(c3ccc4c(c3)OCCO4)C2)cc1 (stereo not given) |  | inactive: 1.09% |
| Nc1c(C(=O)Nc2cccc(Cl)c2)sc2nc3c(cc12)CN(Cc1ccccc1)CC3 | inconclusive: 31.6 µM [cytotoxic, single point] |  |
| Cc1ccc(-c2cc(C(=O)N(Cc3ccccc3)Cc3ccco3)no2)cc1F |  | inactive: -1.12% |
| O=C(Nc1cccnc1)c1noc2c1CCCCC2 | active: 12.6 µM |  |
| COc1ccccc1C(=O)Nc1ccc(-c2nc3ccccc3s2)c(C)c1 | inconclusive: 10 µM [cytotoxic, partial curve] |  |
| CCOC(=O)c1sc(SCC(=O)Nc2ccc(N(C)C)cc2)nc1N | inconclusive: 10 µM [cytotoxic, partial curve] |  |
| O=C(Nc1ccc(Br)cn1)c1ccc2nccnc2c1 |  | inactive: -22.4% |
| COc1ccc(CN2C(=O)C(NC(=O)c3ccccc3C)(C(F)(F)F)N=C2c2ccccc2)cc1 (stereo not given) |  | inactive: -10.4% |
| O=C(Nc1ccc(Cl)c(Cl)c1)N1CCC(c2ccccc2)C1 (stereo not given) | inconclusive: 15.8 µM [cytotoxic, single point] |  |
| O=C(Nc1ccc(F)cc1F)c1noc2c1CCc1ccccc1-2 | inconclusive: 3.98 µM [cytotoxic, partial curve] |  |

| SMILES | Potency | activity change, negative = cytotoxicity |
| --- | --- | --- |
| CC(C)CCNC(=O)CSCc1cnn(-c2ccccc2)c1-n1cccc1 |  | inactive: -6.38% |
| Cn1c(C(=O)N2CCCC(C(=O)NCCCc3ccccc3)C2)cc2sccc21 (stereo not given) |  | inactive: 11.8% |
| COc1ccc(C)cc1NC(=O)c1ccc2c(Cl)c3c(nc2c1)CCC3 | inconclusive: 2.51 µM [cytotoxic, full curve] |  |
| CCOC(=O)NCc1ccc(Cl)c(Cl)c1 |  | inactive: -3.16% |
| O=C(CCn1c(=O)c2sccc2n(CC(=O)Nc2ccccc2)c1=O)NCc1ccccc1Cl | inconclusive: 31.6 µM [cytotoxic, single point] |  |
| NC[C@@H]1O[C@H](c2ccccc2)Cc2c1ccc(O)c2O | inconclusive: 31.6 µM [cytotoxic, single point] |  |
| Cc1ccc(CNC(=O)c2ccc3c(c2)N(Cc2ccccc2Cl)C(=O)CS3)cc1 |  | inactive: -20.8% |
| CN(C)c1ccc(NC(=O)Cn2nnc3sc4c(c3c2=O)CCC(C(C)(C)C)C4)cc1 (stereo not given) |  | inactive: 7.53% |
| Cn1c(SC2=CS(=O)(=O)c3ccccc32)nc2ccccc21 | inconclusive: 20 µM [cytotoxic, single point] |  |
| CN(C)S(=O)(=O)c1cccc(NC(=O)CSc2nc3c(cc2C#N)C(=O)CC(C)(C)C3)c1 | inconclusive: 0.0794 µM [cytotoxic, full curve] |  |
| CCOc1ccccc1-c1nc(Cn2c(=O)cc(C)c3c(C)nn(-c4ccccc4)c32)c(C)o1 |  | inactive: 10.2% |
| CC(C)(C)c1nc2ccccc2c2nnc(SCC(=O)NCc3ccco3)n12 |  | inactive: 11% |
| COc1cccc(N2CCN(C(=O)c3ccc(CS(=O)c4cccc(Cl)c4)o3)CC2)c1 (stereo not given) |  | inactive: 7.11% |
| C=CCNc1nc(-c2c(C)nc3sccn23)cs1 |  | inactive: -10.6% |
| O=C(Nc1ccc(N2CCCC2)c(Cl)c1)c1ccco1 | active: 10 µM |  |
| CCc1ccccc1NC(=O)C1CCN(c2nn3c(=O)cc(C)nc3s2)CC1 |  | inactive: 2.15% |
| CN(C)S(=O)(=O)Nc1ccc(-c2cn3ccsc3n2)cc1 | inconclusive: 20 µM [cytotoxic, partial curve] |  |
| CCCOC(=O)C(C)n1nnc2sc(-c3ccccc3)cc2c1=O (stereo not given) | inconclusive: 15.8 µM [cytotoxic, partial curve] |  |
| Cn1cnc2cc(NC(=O)c3ccco3)ccc21 | active: 15.8 µM |  |
| CC(=O)Nc1ccc(C(=O)Nc2ccc(S(=O)(=O)NCC3CCCO3)cc2)cc1 (stereo not given) |  | inactive: 0.194% |
| Cc1csc(SCC(=O)c2cc(C)n(Cc3cccs3)c2C)n1 | active: 12.6 µM |  |
| CC(C)CCn1c(N)c(S(=O)(=O)c2cccs2)c2nc3ccccc3nc21 |  | inactive: 19% |
| O=C(NCCc1ccccc1)C(=O)NCC(c1cccnc1)N1CCN(c2ccc(F)cc2)CC1 (stereo not given) | inconclusive: 31.6 µM [cytotoxic, single point] |  |
| COc1ccccc1-c1cc(C(F)(F)F)nc(S(=O)(=O)CCCC(=O)Nc2cc(Br)ccc2O)n1 | active: 20 µM |  |
| O=C(c1ccccc1)c1nnc(-c2ccccc2F)o1 |  | inactive: -9.2% |
